In PubChem BioAssay AID624296 (National Center for Advancing Translational Sciences (NCATS), 2012):
Where “and” joins values, the source holds several entries; their conditions need not be identical. Equal entries are not always repeated. The whole screen tested about 350,000 compounds, of which about 9,900 (2.8%) were called active. Inconclusive means that the source gave no clear call. Such entries were picked first, then a sample of the others. The call rests on the fitted dose curve; in most records, active means well fitted activation curve with a large enough effect; inconclusive means small, poorly fitted or top-dose-only effect; inactive means no such curve, though single readings can be large or run the other way. Where the call is inconclusive, the potency comes from a doubtful curve fit.

Assay: A quantitative high throughput screen for small molecules that induce DNA re-replication in MCF 10a normal breast cells. Further: nearly all actives have a fitted effect of over 50% in size. On activity, positive = re-replication: % of control where 0% means no effect.
Conditions: MCF 10A DNA re-replication, Hoechst nuclear intensity, 48 h; activity, positive = re-replication: at 46.1 µM (top of the series)
Potency means the concentration at half of the fitted maximal effect; tags describe the fitted curve by direction and shape.

SMILES | Potency | activity, positive = re-replication
CCC(CC)C(=O)Nc1cccc(-c2nc3ccccc3o2)c1 | inconclusive: 7.31 µM [activator, partial curve, poor fit] | –
CSc1nnc2c(n1)OC=Nc1ccccc1-2 | inconclusive: 17.8 µM [activator, partial curve, poor fit] | –
Oc1cc2ccccc2cc1-c1n[nH]c(=S)n1Cc1ccco1 | inconclusive: 20.6 µM [activator, single point] | –
Cc1[nH]n(-c2cccc3ccccc23)c(=O)c1/C=N/NC(=O)c1cccc([N+](=O)[O-])c1 | inconclusive: 29.1 µM [activator, partial curve, poor fit] | –
CC(C)CC(=O)N1CCN(Cc2ccc(Cl)cc2)CC1 | inconclusive: 6.51 µM [activator, single point] | –
Cc1cccc(C)c1OCC(=O)N(Cc1ccco1)C1CCS(=O)(=O)C1 (centres undefined) | inactive | –
Cc1c2c(n3c(nc4ccccc43)c1C#N)N(CCN(C)C)CC2 | active: 16.4 µM | –
O=C(COC(=O)c1cc(Cl)ccc1O)NNC(=O)c1ccccc1F | inactive | –
CN(CC(=O)Nc1ccc(C#N)cc1)Cc1ccc(Cl)c(Cl)c1 | inconclusive: 14.1 µM [activator, single point] | –
CC12CCC(C(=O)N3CCc4ccccc43)(CC1=O)C2(C)C (centres undefined) | inactive | –
O=C(c1cccs1)c1cn(CC(=O)N2CCc3ccccc3C2)c2ccccc12 | inconclusive: 32.6 µM [activator, partial curve, poor fit] | –
Cc1ccc(Nc2nc(CSc3nnc(-c4ccccc4C)n3C)cs2)cc1 | inconclusive: 25.9 µM [activator, partial curve, poor fit] | –
CCOC(=O)C1CCN(C(=O)c2cc3cc(Br)ccc3oc2=O)CC1 | inactive | –
CCOC(=O)c1cc(-c2ccc(N3CCOCC3)cc2)nn1-c1ccc(F)cc1F | inconclusive: 18.4 µM [activator, partial curve, poor fit] | –
COC(=O)c1ccccc1N/C=C/C(=O)c1ccc(Br)cc1 | inconclusive: 20.6 µM [activator, partial curve, poor fit] | –
Cc1ccc(-c2nnc(Nc3ccc4c(c3)OCO4)c3ccccc23)cc1S(=O)(=O)NCCO | inconclusive: 20.6 µM [activator, partial curve, poor fit] | –
CCC(C)C(NC(N)=O)C(=O)Nc1ccc(C(=O)OC)cc1 (centres undefined) | inactive | –
O=C(/C=C/NCc1ccc(F)cc1)c1ccccc1 | inconclusive: 18.4 µM [activator, single point] | –
CC(Oc1ccccc1)C(=O)N1CCN=C1SCc1ccc(F)cc1 (centres undefined) | inactive | –
CN(C)NC1=CC(=[N+]2CCCC2)CC(C)(C)C1 | inactive | –
CCN1CCN(c2nc3c(C)cccn3c(=O)c2/C=C(\C#N)C(=O)NCCOC)CC1 | active: 16.4 µM | –
COc1cccc(C(=O)O/N=C(\N)Cc2ccc(Cl)cc2)c1 | inactive | –
COc1cc2ccccc2cc1C(=O)Nc1ccc(N2CCOCC2)cc1 | inconclusive: 18.4 µM [activator, partial curve, poor fit] | –

SMILES | Potency | activity, positive = re-replication
O=[N+]([O-])c1ccccc1/C=C/c1ccc2ccccc2n1 | inconclusive: 23.1 µM [activator, single point] | –
CC(Oc1cc2oc(=O)c3c(c2cc1Cl)CCC3)C(=O)NC1CC(C)(C)NC(C)(C)C1 (centres undefined) | inconclusive: 18.4 µM [activator, partial curve] | –
c1ccc(CCc2ccccc2-c2nc(-c3cccnc3)no2)cc1 | inconclusive: 29.1 µM [activator, partial curve, poor fit] | –
CCCNc1nc(=S)n(-c2ccccc2)c(C)c1C(C)=O | inconclusive: 7.31 µM [activator, partial curve, poor fit] | –
Cc1cccc(Cn2ccc(N)n2)c1 | inactive | –
COC(=O)c1ccccc1NC(=O)CNc1ccc(F)c(S(=O)(=O)N2CCOCC2)c1 | inactive | –
Cc1nn(C)cc1C(C)NC(=O)c1cc(COc2cccc3cnccc23)on1 (centres undefined) | inactive | –
CC(C)N(C(=S)Nc1ccc(S(=O)(=O)N2CCOCC2)cc1)c1ccccc1 | inactive | –
COC(=O)c1cc(NC(=O)CN(c2ccccc2OC)S(=O)(=O)c2ccccc2)ccc1Cl | inactive | –
CC1CC(NC(=O)c2c(O)nc3ccccn3c2=O)CC(C)(C)C1 (centres undefined) | inactive | –
CCCN1CCN(C(=O)C(C)n2nc(C)c3sc4ccccc4c3c2=O)CC1 (centres undefined) | inactive | –
CCN(CC)C(=O)N1CCN(S(=O)(=O)c2c(C)cc(C)cc2C)CC1 | inconclusive: 0.259 µM [activator, full curve, poor fit] | –
Oc1ccc(-c2ccccc2)cc1CN1CCCCCC1 | inconclusive: 3.66 µM [activator, full curve] | –
Cc1c(C(=O)Nc2nc3ccccc3[nH]2)oc2ccc(Br)cc12 | inconclusive: 16.4 µM [activator, partial curve, poor fit] | –
CCN(CC(=O)NCc1ccc(F)cc1)C(=O)c1oc2ccccc2c1C | inconclusive: 13 µM [activator, partial curve] | –
COc1ccc(OC)c(-c2nnc3n2N=C(c2ccc(OC)c(OC)c2)CS3)c1 | – | inconclusive: 54.1% [activator]
Cc1nn(-c2ccccc2)nc1C(=O)c1c(C)[nH]n(-c2ccccc2)c1=O | inconclusive: 18.4 µM [activator, single point] | –
COc1cc(C(C)=O)ccc1OCC(O)CN1CCN(c2ccc(C)c(C)c2)CC1 (centres undefined) | inconclusive: 5.8 µM [activator, single point] | –
COc1ccc(-c2nc(CSCC(=O)NC3CCCc4ccccc43)c(C)o2)cc1OC (centres undefined) | inconclusive: 29.1 µM [activator, partial curve, poor fit] | –
O=C(CNC(=O)c1ccc(Cl)cc1)OCCCOC(=O)CNC(=O)c1ccc(Cl)cc1 | inconclusive: 29.1 µM [activator, single point] | –
Cc1cc(C)cc(NS(=O)(=O)c2cnc(Cl)c(Cl)c2)c1 | inconclusive: 18.4 µM [activator, single point] | –
CC(/C=N/NC(=O)NC1CCCCC1)=C\c1ccccc1 | inconclusive: 29.1 µM [activator, single point] | –
COCCN1CCC(CNCc2cn[nH]c2-c2ccc(C)c(C)c2)C1 (centres undefined) | inactive | –

SMILES | Potency | activity, positive = re-replication
O=C(Nc1ccc(-c2csc(-c3ccccc3)n2)cc1)c1ccccc1 | inconclusive: 16.4 µM [activator, single point] | –
CCOP1(=O)OCC2OC(n3cnc4c(N)ncnc43)C(O)C2O1 (centres undefined) | active: 14.6 µM | –
COc1cc(C(=O)N2CCN(S(=O)(=O)c3cccc(F)c3)CC2)ccc1OCC(=O)N1CCOCC1 | inactive | –
Cc1ccc(NC(=O)C2CCN(S(=O)(=O)c3ccc(C(C)(C)C)cc3)CC2)cc1S(=O)(=O)N1CCOCC1 | inactive | –
CCOc1ccc(N(CC(=O)NCCC2=CCCCC2)S(=O)(=O)c2ccccc2)cc1 | inconclusive: 7.08 µM [activator, partial curve] | –
CCOc1cc(C(=O)N2CCN(c3ccccn3)CC2)cc(OCC)c1OCC | inactive | –
CC(=O)NC(CC(=O)Nc1nc(-c2ccccc2)c(C(C)=O)s1)c1ccccc1 (centres undefined) | inconclusive: 9.2 µM [activator, partial curve, poor fit] | –
COc1cccc(CC(NC(C)=O)C(=O)NC2CCN(S(=O)(=O)c3ccc4ccccc4c3)CC2)c1 (centres undefined) | inconclusive: 32.6 µM [activator, partial curve, poor fit] | –
CCCC1(c2ccccc2)NC(=O)N(CC(=O)NCc2ccc(C)cc2)C1=O (centres undefined) | inactive | –
CCNc1ccc(S(N)(=O)=O)cc1[N+](=O)[O-] | inactive | –
CCOc1ccccc1NC(=O)c1cc(C(=O)Nc2ccccc2OCC)cc(N2C(=O)CCC2=O)c1 | inconclusive: 16.4 µM [activator, single point] | –
CCOC(=O)CN1C(=O)C(O)(CC(=O)c2ccccn2)c2ccccc21 (centres undefined) | inconclusive: 29.1 µM [activator, single point] | –
Cc1cc(C)cc(OCC(=O)Nc2ccc(F)cc2)c1 | inconclusive: 20.6 µM [activator, single point] | –
CC1CCN(C(=O)c2ccc(CSc3ccc(Cl)cc3)cc2)CC1 | inconclusive: 23.1 µM [activator, single point] | –
O=S(=O)(c1ccc2ccccc2c1)N1CCN(S(=O)(=O)c2c(F)cccc2F)CC1 | inactive | –
CC(=O)Nc1ccccc1C(=O)N1CCN(Cc2ccc3c(c2)OCO3)CC1 | inactive | –
COc1ccc2oc(=N)c(C(=O)Nc3ccccc3Cl)cc2c1 | inactive | –
C=C(C)Cn1c(C)cc(C)c(S(=O)(=O)c2cccc(C)c2)c1=O | inactive | –
COc1ccc(S(=O)(=O)NCCSCc2ccco2)cc1Cl | inconclusive: 32.6 µM [activator, single point] | –
CC1(C)CCc2nc(SCc3ccccc3)c(C#N)cc2C1 | inconclusive: 20.6 µM [activator, partial curve, poor fit] | –
CC(C)Cn1cnc2c(N)nc3ccccc3c21 | inactive and inconclusive: 2.59 µM [activator, partial curve, poor fit] | –
COc1ccc(Br)cc1/C=C/C(=O)Nc1ccc2ccccc2c1 | inconclusive: 6.51 µM [activator, partial curve, poor fit] | –
C#CCOCCOCCOCCNc1nc(N2CCN(C(=O)CCCCCCCCCCNC(=O)Cn3cc(CCCCCN)nn3)CC2)nc(N2CCN(C(=O)CCCCCCCCCCNC(=O)[C@H](CO)n3cc(CCCSC)nn3)CC2)n1 | inconclusive: 13 µM [activator, single point] | –
